# Reference: the supplement of paper PMC8728848
# The other results are listed elsewhere or left out.
# B1: Clone730PsrP (Streptococcus pneumoniae) (protein)
# chain: MDHHHHHHHHHHASENLYFQGAMVVGSQTAAATEATAKKVEEDRKKPASDYVASVTNVNLQSYAKRRKRSVDSIEQLLASIKNAAVFSGNTIVNGAPAINASLNIAKSETKVYTGEGVDSVYRVPIYYKLKVTNDGSKLTFTYTVTYVNPKTNDLGNISSMRPGYSIYNSGTSTQTMLTLGSDLGKPSGVKNYITDKNGRQVLSYNTSTMTTQGSGYTWGNGAQMNGFFAKKGYGLTSSWTVPITGTDTSFTFTPYAARTDRIGINYFNGGGKVVESSTT
# Columns and labels:
# Assay in all cases: glycan array binding signal (z-score within array); higher = stronger binding
# Details in all cases: glycan notation: IUPAC condensed, linker removed
# [1] = biological target: Neu5Ac(a2-6)Gal(b1-4)GlcNAc(b1-6)GalNAc
# Procedure, shortened: (§1)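 Glycan array data were curated from 3228 arrays in the Consortium for Functional Glycomics database and kept only where the protein sequence was available. Glycan names were converted to IUPAC-condensed notation, and columns mapping to the same glycan were averaged. The binding signal is a within-array Z-score, averaged across arrays of the same protein sequence at different concentrations or buffers and across linkers. Negative Z-scores can be read as non-binding.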
# [2] = biological target: Neu5Ac(a2-6)Gal(b1-4)GlcNAc(b1-6)[Gal(b1-3)GlcNAc(b1-3)]Gal(b1-4)Glc
# Procedure, shortened: as §1
# [3] = biological target: Neu5Ac(a2-6)Gal(b1-4)GlcNAc(b1-6)[Gal(b1-3)]GalNAc
# Procedure, shortened: as §1
# [4] = biological target: Neu5Ac(a2-6)Gal(b1-4)GlcNAc6S
# Procedure, shortened: as §1
# [5] = biological target: Neu5Ac(a2-6)GalNAc
# Procedure, shortened: as §1
# [6] = biological target: Neu5Ac(a2-6)GalNAc(b1-4)GlcNAc
# Procedure, shortened: as §1
# [7] = biological target: Neu5Ac(a2-6)GalNAc(b1-4)GlcNAc6S
# Procedure, shortened: as §1
# [8] = biological target: Neu5Ac(a2-6)GlcNAc(b1-4)GlcNAc
# Procedure, shortened: as §1
# [9] = biological target: Neu5Ac(a2-6)GlcNAc(b1-4)GlcNAc(b1-4)GlcNAc
# Procedure, shortened: as §1
# [10] = biological target: Neu5Ac(a2-8)Neu5Ac
# Procedure, shortened: as §1
# [11] = biological target: Neu5Ac(a2-8)Neu5Ac(a2-3)Gal(b1-3)GalNAc(b1-4)[Neu5Ac(a2-3)]Gal(b1-4)Glc
# Procedure, shortened: as §1
# [12] = biological target: Neu5Ac(a2-8)Neu5Ac(a2-3)Gal(b1-3)GalNAc(b1-4)[Neu5Ac(a2-8)Neu5Ac(a2-3)]Gal(b1-4)Glc
# Procedure, shortened: as §1
# [13] = biological target: Neu5Ac(a2-8)Neu5Ac(a2-3)Gal(b1-4)Glc
# Procedure, shortened: as §1
# [14] = biological target: Neu5Ac(a2-8)Neu5Ac(a2-3)Gal(b1-4)GlcNAc
# Procedure, shortened: as §1
# [15] = biological target: Neu5Ac(a2-8)Neu5Ac(a2-3)[Gal(b1-3)GalNAc(b1-4)]Gal(b1-4)Glc
# Procedure, shortened: as §1
# [16] = biological target: Neu5Ac(a2-8)Neu5Ac(a2-3)[GalNAc(b1-4)]Gal(b1-4)Glc
# Procedure, shortened: as §1
# [17] = biological target: Neu5Ac(a2-8)Neu5Ac(a2-8)Neu5Ac
# Procedure, shortened: as §1
# [18] = biological target: Neu5Ac(a2-8)Neu5Ac(a2-8)Neu5Ac(a2-3)Gal(b1-4)Glc
# Procedure, shortened: as §1
# [19] = biological target: Neu5Ac(a2-8)Neu5Ac(a2-8)Neu5Ac(a2-3)[Gal(b1-3)GalNAc(b1-4)]Gal(b1-4)Glc
# Procedure, shortened: as §1
# [20] = biological target: Neu5Ac(a2-8)Neu5Ac(a2-8)Neu5Ac(a2-3)[GalNAc(b1-4)]Gal(b1-4)Glc
# Procedure, shortened: as §1
# [21] = biological target: Neu5Ac(a2-8)Neu5Ac(a2-8)Neu5Ac(a2-8)Neu5Ac(a2-3)[GalNAc(b1-4)]Gal(b1-4)Glc
# Procedure, shortened: as §1
# [22] = biological target: Neu5Ac(a2-8)Neu5Gc(a2-3)Gal(b1-4)GlcNAc
# Procedure, shortened: as §1
# [23] = biological target: Neu5Ac(b2-6)Gal(b1-4)GlcNAc
# Procedure, shortened: as §1
# [24] = biological target: Neu5Ac(b2-6)GalNAc
# Procedure, shortened: as §1
# [25] = biological target: Neu5Ac9Ac(a2-3)Gal(b1-3)GlcNAc
# Procedure, shortened: as §1
# [26] = biological target: Neu5Ac9Ac(a2-3)Gal(b1-4)GlcNAc
# Procedure, shortened: as §1
# [27] = biological target: Neu5Ac9Ac(a2-6)Gal(b1-4)GlcNAc
# Procedure, shortened: as §1
# [28] = biological target: Neu5Gc(a2-3)Gal(b1-3)GlcNAc
# Procedure, shortened: as §1
# [29] = biological target: Neu5Gc(a2-3)Gal(b1-3)[Fuc(a1-4)]GlcNAc
# Procedure, shortened: as §1
# [30] = biological target: Neu5Gc(a2-3)Gal(b1-4)Glc
# Procedure, shortened: as §1
# [31] = biological target: Neu5Gc(a2-3)Gal(b1-4)GlcNAc
# Procedure, shortened: as §1
# [32] = biological target: Neu5Gc(a2-3)Gal(b1-4)GlcNAc(b1-3)Gal(b1-4)GlcNAc(b1-2)Man(a1-3)[Neu5Gc(a2-3)Gal(b1-4)GlcNAc(b1-3)Gal(b1-4)GlcNAc(b1-2)Man(a1-6)]Man(b1-4)GlcNAc(b1-4)GlcNAc
# Procedure, shortened: as §1
# [33] = biological target: Neu5Gc(a2-3)Gal(b1-4)[Fuc(a1-3)]GlcNAc
# Procedure, shortened: as §1
# [34] = biological target: Neu5Gc(a2-6)Gal(b1-4)GlcNAc
# Procedure, shortened: as §1
# [35] = biological target: Neu5Gc(a2-6)GalNAc
# Procedure, shortened: as §1
# [36] = biological target: Neu5Gc(a2-8)Neu5Ac(a2-3)Gal(b1-4)GlcNAc
# Procedure, shortened: as §1
# [37] = biological target: Neu5Gc(a2-8)Neu5Gc(a2-3)Gal(b1-4)GlcNAc
# Procedure, shortened: as §1
# [38] = biological target: Neu5Gc(a2-8)Neu5Gc(a2-3)Gal(b1-4)GlcNAc(b1-3)Gal(b1-4)GlcNAc
# Procedure, shortened: as §1
binder,measurement,setting,value
B1,glycan array binding signal (z-score),[1],0.094
same,glycan array binding signal (z-score),[2],-0.434
same,glycan array binding signal (z-score),[3],0.145
same,glycan array binding signal (z-score),[4],-0.391
same,glycan array binding signal (z-score),[5],-0.318
same,glycan array binding signal (z-score),[6],-0.466
same,glycan array binding signal (z-score),[7],-0.059
same,glycan array binding signal (z-score),[8],-0.403
same,glycan array binding signal (z-score),[9],-0.283
same,glycan array binding signal (z-score),[10],0.525
same,glycan array binding signal (z-score),[11],-0.282
same,glycan array binding signal (z-score),[12],1.53
same,glycan array binding signal (z-score),[13],-0.584
same,glycan array binding signal (z-score),[14],-0.453
same,glycan array binding signal (z-score),[15],-0.43
same,glycan array binding signal (z-score),[16],-0.27
same,glycan array binding signal (z-score),[17],-0.372
same,glycan array binding signal (z-score),[18],-0.37
same,glycan array binding signal (z-score),[19],0.785
same,glycan array binding signal (z-score),[20],-0.53
same,glycan array binding signal (z-score),[21],-0.514
same,glycan array binding signal (z-score),[22],-0.45
same,glycan array binding signal (z-score),[23],-0.36
same,glycan array binding signal (z-score),[24],-0.586
same,glycan array binding signal (z-score),[25],0.354
same,glycan array binding signal (z-score),[26],-0.137
same,glycan array binding signal (z-score),[27],-0.587
same,glycan array binding signal (z-score),[28],0.185
same,glycan array binding signal (z-score),[29],0.618
same,glycan array binding signal (z-score),[30],0.613
same,glycan array binding signal (z-score),[31],-0.208
same,glycan array binding signal (z-score),[32],-0.301
same,glycan array binding signal (z-score),[33],0.189
same,glycan array binding signal (z-score),[34],0.758
same,glycan array binding signal (z-score),[35],0.158
same,glycan array binding signal (z-score),[36],-0.605
same,glycan array binding signal (z-score),[37],-0.641
same,glycan array binding signal (z-score),[38],-0.565
